# Screen size: about 390,000 compounds; about 2,200 (0.56%) were called active. This list was built around the results that the source calls inconclusive (neither active nor inactive); the mix of calls is not that of the screen. The call rests on the fitted dose curve; in most records, active means well fitted inhibition curve with a large enough effect; inconclusive means small, poorly fitted or top-dose-only effect; inactive means no such curve, though single readings can be large or run the other way. A potency beside an inconclusive call is a rough fit, not a confirmed value.
# Target: Chromobox protein homolog 1 (Homo sapiens) (UniProt P83916)
# Sequence of UniProt P83916 (P83916 whole entry, looked up): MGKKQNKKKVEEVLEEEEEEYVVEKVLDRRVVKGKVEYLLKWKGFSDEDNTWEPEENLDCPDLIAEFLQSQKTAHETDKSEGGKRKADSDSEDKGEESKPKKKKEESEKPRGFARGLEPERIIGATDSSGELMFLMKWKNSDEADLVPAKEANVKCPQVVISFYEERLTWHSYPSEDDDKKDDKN
# Test: HTS for Inhibitors of HP1-beta Chromodomain Interactions with Methylated Histone Tails; further: nearly all actives have a fitted effect of over 70% in size
# Conditions: AlphaScreen HP1-beta / biotin-H3K9me3 peptide binding; series mostly up to 114 µM
# In short: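 AlphaScreen: HP1-beta (50 nM) preformed 30 min with biotin-H3(1-18)K9me3 peptide (50 nM) in PBS pH 7.4, 0.01% Tween-20. Compound added for 30 min at RT, then streptavidin donor/nickel chelate acceptor beads (10 ug/mL) for 30 min.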
# Potency means the concentration at half of the fitted maximal effect; tags describe the fitted curve by direction and shape.
row,Structure (SMILES),Potency
1,COc1ccc(C(=O)NNC(=S)NC(=O)c2cc(-c3ccccc3)nc3ccccc23)cc1,"inconclusive: 15.8 µM [inhibitor, partial curve, poor fit]"
2,CSc1nnc2c(n1)c(C)nn2-c1ccc(C)cc1,"inconclusive: 3.98 µM [inhibitor, full curve]"
3,Cc1cc(NC(=O)CCc2ccc(-c3ccccc3)o2)no1,inactive
4,CCOc1ccc(/C=N/n2cc(-c3ccccc3)[nH]c2=S)cc1,"inconclusive: 28.2 µM [inhibitor, partial curve]"
5,O=C(CCn1cnc(-c2ccccc2)c1-c1ccccc1)N/N=C/c1ccccc1O,"inconclusive: 39.8 µM [inhibitor, partial curve]"
6,CCOC(=O)C1CCCN(C(=O)c2ccc3c(c2)N(Cc2cccc(Cl)c2)C(=O)c2ccccc2S3(=O)=O)C1 (centres undefined),inactive
7,COc1ccc(-c2cn(-c3ccc(OC)cc3)c(=S)[nH]2)cc1,"inconclusive: 35.5 µM [inhibitor, partial curve]"
8,Cc1cc(N(C)C)ccc1N=Nc1ccc2ncccc2c1,active: 8.91 µM
9,Cc1cc(C)c(S(=O)(=O)NCC(c2ccc(N(C)C)cc2)N2CCc3ccccc32)c(C)c1 (centres undefined),"inconclusive: 14.1 µM [inhibitor, full curve]"
10,CC(=O)c1cccc(OCC(O)CN2CCN(C(=O)c3ccco3)CC2)c1 (centres undefined),"inconclusive: 89.1 µM [inhibitor, single point]"
11,CN(C)c1ccc(CNc2nc(-c3ccccc3)nn2S(C)(=O)=O)cc1,"inconclusive: 39.8 µM [inhibitor, partial curve]"
12,CCCOc1ccccc1C1CC(=O)Nc2cc3c(cc21)OCCO3 (centres undefined),"inconclusive: 89.1 µM [inhibitor, single point]"
13,C=CCNC(=O)CC1C(=O)NCCN1Cc1ccc(-c2ccccc2)cc1 (centres undefined),inactive
14,COc1cccc(Nc2nnc(Cc3cccnc3)c3ccccc23)c1,inactive
15,O=c1[nH]c2ccccc2nc1Cc1ccc(Cl)cc1,inactive
16,Cc1ccc(NC(=O)CN(C)CC(=O)Nc2cccc(F)c2)cc1S(=O)(=O)N1CCCCCC1,"inconclusive: 17.8 µM [inhibitor, full curve]"
17,Clc1ccc(CN2CCCCCC2)cc1,"inconclusive: 70.8 µM [inhibitor, partial curve]"
18,COc1cccc(OC)c1C(=O)OCC(=O)N(c1ccccc1)C1CCCCC1,inactive
19,COC(=O)c1ccc2c(=O)[nH]c(COC(=O)c3c(-c4ccccc4)noc3C)nc2c1,inactive
20,COc1cc(C)ccc1OCCOCCN(C)Cc1ccccc1,"inconclusive: 39.8 µM [inhibitor, partial curve, poor fit]"
21,Cc1ccc(NS(=O)(=O)N2CCOCC2)c(C)c1,inactive
22,CCN(CCNCC(O)COc1ccccc1C(C)C)c1cccc(C)c1 (centres undefined),"inconclusive: 25.1 µM [inhibitor, single point]"

row,Structure (SMILES),Potency
1,CCc1ccc2oc(C(=O)NCCc3ccc(OC)c(OC)c3)cc(=O)c2c1,inactive
2,CC/C(=N\NC(=O)CNC(=O)/C=C/c1ccc(OC)cc1)c1ccccc1,inactive
3,COc1ccc2oc(C(=O)NCc3cc(OC)c(OC)cc3OC)c(C)c2c1,"inconclusive: 56.2 µM [inhibitor, partial curve, poor fit]"
4,CC1SC(c2ccccc2)N(CC(O)c2ccc([N+](=O)[O-])cc2)C1=O (centres undefined),inactive
5,Cc1ccc(CSc2nnc(CNc3ccc(F)cc3)o2)cc1,"inconclusive: 35.5 µM [inhibitor, partial curve, poor fit]"
6,Oc1cccc(/C=N/N2CCN(C3c4ccccc4-c4ccccc43)CC2)c1,"inconclusive: 50.1 µM [inhibitor, partial curve]"
7,CCOc1cc(Br)cc(C(c2c(C(=O)O)[nH]c3ccccc23)c2c(C(=O)O)[nH]c3ccccc23)c1O,inactive
8,Cc1nn(C)c(C(=O)NC(=S)Nc2ccc([N+](=O)[O-])cc2)c1Cl,inactive
9,CC1CCCCN1CC(=O)Nc1ccc2c(c1)OCO2 (centres undefined),"inconclusive: 31.6 µM [inhibitor, single point]"
10,CCN(Cc1nc(-c2ccc(OC)cc2)oc1C)S(=O)(=O)c1ccc(Cl)cc1,"inconclusive: 15.8 µM [inhibitor, full curve]"
11,CCC(C)NCCCOc1ccc(Cl)cc1C(C)(C)C (centres undefined),"inconclusive: 2.82 µM [inhibitor, partial curve, poor fit]"
12,O=c1c2c3c(sc2nc(NCCO)n1CCc1ccccc1)CCCCC3,"inconclusive: 50.1 µM [inhibitor, partial curve]"
13,O=C(NCC1CCCO1)C(c1cccs1)N(Cc1cccs1)C(=O)c1ccc(-c2ccccc2)[nH]1 (centres undefined),"inconclusive: 31.6 µM [inhibitor, single point]"
14,O=C(CNCC1CCCCC1)Nc1cccc(S(=O)(=O)N2CCOCC2)c1,"inconclusive: 31.6 µM [inhibitor, partial curve]"
15,CCN(CC)S(=O)(=O)c1ccc(NCC2COc3ccccc3O2)c([N+](=O)[O-])c1 (centres undefined),"inconclusive: 28.2 µM [inhibitor, single point]"
16,CC(C)(C)/C=N/NC(=O)C1CC1,inactive
17,O=C(OCCC12CC3CC(CC(C3)C1)C2)c1ccc(NCc2cc(O)ccc2O)cc1,"inconclusive: 15.8 µM [inhibitor, full curve, poor fit]"
18,COc1ccc(S(=O)(=O)N(C(=O)c2ccco2)c2cc3sc(=O)oc3c3ccccc23)cc1,"inconclusive: 89.1 µM [inhibitor, partial curve, poor fit]"
19,CN(C)c1nc2ccccc2c(N)c1-c1ccccc1,"inconclusive: 22.4 µM [inhibitor, partial curve, poor fit]"
20,Cc1ccc(-c2cnc(NCc3ccc(C(C)C)cc3)n2C)cc1,"inconclusive: 17.8 µM [inhibitor, full curve]"
21,Cn1cnc(C(=O)N2CCc3ccccc3C2)c1C(=O)N1CCc2ccccc2C1,"inconclusive: 70.8 µM [inhibitor, partial curve]"
22,Cc1ccc(NC(=O)c2sc(N)nc2-c2ccccc2)cc1C,"inconclusive: 50.1 µM [inhibitor, partial curve]"

# Reference: PubChem BioAssay AID540317 (National Center for Advancing Translational Sciences (NCATS), 2011)
